# Experimental data taken from the supplement of paper PMC4604168 (melanoma cell lines).
# The list shows a part of the results. Single values are uncertain, as repeats are few or missing.
# System: WM115
# Assay: cell count relative to DMSO control; melanoma cells; higher = more viable cells
# Conditions: library dose: standard library concentration; 72 h
# 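Note: cells treated in 1,536-well plates, then fixed and DAPI-stained, with nuclei counted from automated high-throughput microscope images.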
row,SMILES,cell count
1,"O=C(CCCCCCC(=O)Nc1ccccc1)NO [vorinostat] + O=S(=O)(c1ccccc1)N(CC(F)(F)F)c1ccc(C(O)(C(F)(F)F)C(F)(F)F)cc1 [T0901317] (first compound 0.4 µM, partner dose 7 µM)",85.2%
2,"Nc1cccc2c1CN(C1CCC(=O)NC1=O)C2=O (centres undefined) [lenalidomide] + Cn1cncc1[C@@](N)(c1ccc(Cl)cc1)c1ccc2c(c1)c(-c1cccc(Cl)c1)cc(=O)n2C [tipifarnib] (first compound 5 µM, partner dose 0.05 µM)",61.3%
3,"COCC[n+]1c2c(n(Cc3cnccn3)c1C)C(=O)c1ccccc1C2=O + Cn1cncc1[C@@](N)(c1ccc(Cl)cc1)c1ccc2c(c1)c(-c1cccc(Cl)c1)cc(=O)n2C [tipifarnib] (first compound 0.002 µM, partner dose 0.05 µM)",64.9%
4,"Cn1c(Nc2ccc(C(F)(F)F)cc2)nc2cc(Oc3ccnc(-c4ncc(C(F)(F)F)[nH]4)c3)ccc21 + Oc1nc(-c2ccc(C(F)(F)F)cc2)nc2c1CSCC2 [XAV939] (first compound 0.4 µM, partner dose 10 µM)",45.6%
5,"Clc1ccc(Nc2nnc(Cc3ccncc3)c3ccccc23)cc1 [vatalanib] + C=CCn1c(=O)c2cnc(Nc3ccc(N4CCN(C)CC4)cc3)nc2n1-c1cccc(C(C)(C)O)n1 [MK1775] (first compound 10 µM, partner dose 0.1 µM)",77.4%
6,"OCc1c[nH]c2ccccc12 [Indole-3-carbinol] + C[C@@H]1CCN(C(=O)CC#N)C[C@@H]1N(C)c1ncnc2[nH]ccc12 [CP690550] (first compound 4 µM, partner dose 5 µM)",109%
7,"Cn1c(Nc2ccc(C(F)(F)F)cc2)nc2cc(Oc3ccnc(-c4ncc(C(F)(F)F)[nH]4)c3)ccc21 + Nc1cccc2c1CN(C1CCC(=O)NC1=O)C2=O [lenalidomide] (first compound 0.4 µM, partner dose 5 µM)",43.6%
8,"COCC[n+]1c2c(n(Cc3cnccn3)c1C)C(=O)c1ccccc1C2=O + O=C(O)C(=O)Nc1sc2c(c1C(=O)O)CCNC2 [TCS401] (first compound 0.002 µM, partner dose 8.33333 µM)",69.4%
9,"C#Cc1cccc(Nc2ncnc3cc(OCCOC)c(OCCOC)cc23)c1 [erlotinib] + O=C(Nc1cccc(Cl)c1)Nc1ncc(CCNc2ncnc3ccsc23)s1 [SNS314] (first compound 4 µM, partner dose 0.004 µM)",34.8%
10,"Cn1c(Nc2ccc(C(F)(F)F)cc2)nc2cc(Oc3ccnc(-c4ncc(C(F)(F)F)[nH]4)c3)ccc21 + COc1ccc2c(c1)CCC1C2CCC2(C)C(NCCCCCCN3C(=O)C=CC3=O)CCC12 [U73122] (first compound 0.4 µM, partner dose 2 µM)",29.2%
11,"Nc1cccc2c1CN(C1CCC(=O)NC1=O)C2=O (centres undefined) [lenalidomide] + O=S(=O)(c1ccccc1)N(CC(F)(F)F)c1ccc(C(O)(C(F)(F)F)C(F)(F)F)cc1 [T0901317] (first compound 5 µM, partner dose 7 µM)",95.8%
12,"OCc1c[nH]c2ccccc12 [Indole-3-carbinol] + O=C(CCCCCCC(=O)Nc1ccccc1)NO [vorinostat] (first compound 4 µM, partner dose 0.4 µM)",85.4%
13,"Nc1cccc2c1CN(C1CCC(=O)NC1=O)C2=O (centres undefined) [lenalidomide] + COc1ccc(COc2ccc(Cc3cnc(N)nc3N)cc2OC)cc1 [GW2580] (first compound 5 µM, partner dose 5 µM)",92.9%
14,"C#Cc1cccc(Nc2ncnc3cc(OCCOC)c(OCCOC)cc23)c1 [erlotinib] + COc1cc2ncnc(Nc3ccc(Oc4ccccc4)cc3)c2cc1OC [SrcI1] (first compound 4 µM, partner dose 10 µM)",58.9%
15,"OCc1c[nH]c2ccccc12 [Indole-3-carbinol] + CC1(C)NC(=O)N(c2ccc([N+](=O)[O-])c(C(F)(F)F)c2)C1=O [nilutamide] (first compound 4 µM, partner dose 5 µM)",115%
16,"OCc1c[nH]c2ccccc12 [Indole-3-carbinol] + CN(NC(=O)CC(=O)NN(C)C(=S)c1ccccc1)C(=S)c1ccccc1 [STA4783] (first compound 4 µM, partner dose 0.03 µM)",11.2%
17,"Clc1ccc(Nc2nnc(Cc3ccncc3)c3ccccc23)cc1 [vatalanib] + Cc1cc(N2CCOCC2)cc2[nH]c(-c3c(NC[C@@H](O)c4cccc(Cl)c4)cc[nH]c3=O)nc12 [BMS536924] (first compound 10 µM, partner dose 1 µM)",124%

row,SMILES,cell count
1,"O=C(CCCCCCC(=O)Nc1ccccc1)NO [vorinostat] + O=C(O)C(=O)Nc1sc2c(c1C(=O)O)CCNC2 [TCS401] (first compound 0.4 µM, partner dose 8.33333 µM)",58.9%
2,"Nc1cccc2c1CN(C1CCC(=O)NC1=O)C2=O (centres undefined) [lenalidomide] + CN(C)S(=O)(=O)c1ccc2c(c1)/C(=C/c1cc3c([nH]1)CCCC3)C(=O)N2 [SU6656] (first compound 5 µM, partner dose 2 µM)",64.4%
3,"Nc1cccc2c1CN(C1CCC(=O)NC1=O)C2=O (centres undefined) [lenalidomide] + COC(=O)c1sccc1S(=O)(=O)Nc1ccc(Nc2ccccc2)cc1OC [GSK0660] (first compound 5 µM, partner dose 5 µM)",101%
4,"Nc1cccc2c1CN(C1CCC(=O)NC1=O)C2=O (centres undefined) [lenalidomide] + N#Cc1c(O)c2c(-c3ccc(-c4ccccc4O)cc3)csc2[nH]c1=O [A769662] (first compound 5 µM, partner dose 10 µM)",96.4%
5,"COCC[n+]1c2c(n(Cc3cnccn3)c1C)C(=O)c1ccccc1C2=O + COc1ccc(COc2ccc(Cc3cnc(N)nc3N)cc2OC)cc1 [GW2580] (first compound 0.002 µM, partner dose 5 µM)",107%
6,"Cn1c(Nc2ccc(C(F)(F)F)cc2)nc2cc(Oc3ccnc(-c4ncc(C(F)(F)F)[nH]4)c3)ccc21 + Cc1cc(N2CCOCC2)cc2[nH]c(-c3c(NC[C@@H](O)c4cccc(Cl)c4)cc[nH]c3=O)nc12 [BMS536924] (first compound 0.4 µM, partner dose 1 µM)",42%
7,"COCC[n+]1c2c(n(Cc3cnccn3)c1C)C(=O)c1ccccc1C2=O + Oc1cc(-c2nc(-c3ccccc3)[nH]c2-c2ccncc2)ccc1Cl [L779450] (first compound 0.002 µM, partner dose 1 µM)",47.6%
8,"C#Cc1cccc(Nc2ncnc3cc(OCCOC)c(OCCOC)cc23)c1 [erlotinib] + O=C1NC(=O)/C(=C/c2ccc(-c3ccc(F)cc3O)o2)S1 [AS252424] (first compound 4 µM, partner dose 5 µM)",75.8%
9,"Cn1c(Nc2ccc(C(F)(F)F)cc2)nc2cc(Oc3ccnc(-c4ncc(C(F)(F)F)[nH]4)c3)ccc21 + NCC(=O)Nc1ccc(-n2nc(C(F)(F)F)cc2-c2ccc3c(ccc4ccccc43)c2)cc1 [OSU03012] (first compound 0.4 µM, partner dose 5 µM)",47.2%
10,"C#Cc1cccc(Nc2ncnc3cc(OCCOC)c(OCCOC)cc23)c1 [erlotinib] + COc1ccc2c(c1)CCC1C2CCC2(C)C(NCCCCCCN3C(=O)C=CC3=O)CCC12 [U73122] (first compound 4 µM, partner dose 2 µM)",74.2%
11,"Clc1ccc(Nc2nnc(Cc3ccncc3)c3ccccc23)cc1 [vatalanib] + OCCn1cc(-c2cnc3nnn(Cc4ccc5ncccc5c4)c3n2)cn1 [PF04217903] (first compound 10 µM, partner dose 5 µM)",81.6%
12,"Nc1cccc2c1CN(C1CCC(=O)NC1=O)C2=O (centres undefined) [lenalidomide] + COc1ccc(-c2ccc3c(N4CCOCC4)nc(N4C[C@@H](C)O[C@@H](C)C4)nc3n2)cc1CO [KU0063794] (first compound 5 µM, partner dose 0.1 µM)",90.8%
13,"O=C(CCCCCCC(=O)Nc1ccccc1)NO [vorinostat] + C[C@@H]1CCN(C(=O)CC#N)C[C@@H]1N(C)c1ncnc2[nH]ccc12 [CP690550] (first compound 0.4 µM, partner dose 5 µM)",81.1%
14,"COCC[n+]1c2c(n(Cc3cnccn3)c1C)C(=O)c1ccccc1C2=O + N#Cc1c(O)c2c(-c3ccc(-c4ccccc4O)cc3)csc2[nH]c1=O [A769662] (first compound 0.002 µM, partner dose 10 µM)",97.8%
15,"Nc1cccc2c1CN(C1CCC(=O)NC1=O)C2=O (centres undefined) [lenalidomide] + O=C(Nc1ccccc1)c1cc([N+](=O)[O-])ccc1Cl [GW9662] (first compound 5 µM, partner dose 10 µM)",77%
16,"O=C(CCCCCCC(=O)Nc1ccccc1)NO [vorinostat] + CC(C)CCN1c2nc(Nc3cc(F)c(O)c(F)c3)ncc2N(C)C(=O)C1C [BID1870] (first compound 0.4 µM, partner dose 1 µM)",86.9%
17,"OCc1c[nH]c2ccccc12 [Indole-3-carbinol] + COCC[n+]1c2c(n(Cc3cnccn3)c1C)C(=O)c1ccccc1C2=O [YM155] (first compound 4 µM, partner dose 0.002 µM)",88.9%
